{"source": "PubChem BioAssay AID504832", "about": "(National Center for Advancing Translational Sciences (NCATS), 2011)", "note": "About 18,000 (5.8%) of roughly 310,000 compounds were called active. Inconclusive means that the source gave no clear call. Such entries were picked first, then a sample of the others. Calls come from the whole dose curve; as a rule, active = well fitted inhibition curve with a large enough effect; inconclusive = small, poorly fitted or top-dose-only effect, or another doubt; inactive = no such curve, though single readings can be large or run the other way. No potency is given beside an inconclusive call; the fits are too rough. % is set by controls: 0 for no effect and ±100 for the full control effect; potency is the fitted concentration of half-maximal effect; tags give direction and shape of the fitted curve."}
{"experiment": "Primary qHTS for delayed death inhibitors of the malarial parasite plastid, 48 hour incubation", "settings": "P. falciparum luciferase growth in erythrocytes; series mostly up to 28.7 µM", "in_short": "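In quantitative HTS format, infected erythrocytes bearing luciferase-reporter parasites were treated for a single generation at 37 C. Luminescence after adding detection reagent served as the growth measure.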"}
{"smiles": "CCOC(=O)c1cn(CC)c2cc(F)c(F)cc2c1=O", "Potency": "inconclusive [inhibitor, single point]"}
{"smiles": "COC(CNC(=O)CCc1c(C)nc2c(-c3ccc(F)cc3)c(C)nn2c1C)OC", "Potency": "inactive"}
{"smiles": "C(=N\\Nc1nc2ccccc2[nH]1)/c1cccc2cccnc12", "Potency": "active: 1.65 µM"}
{"smiles": "Cc1cc(C)cc(C(=O)NC(CC(N)=O)c2ccc(NCC3CC3)c([N+](=O)[O-])c2)c1", "note": "(centres undefined)", "Potency": "inactive"}
{"smiles": "Cc1ccc(-n2ncc(C#N)c2/N=C/N2CCCCCC2)cc1", "Potency": "inconclusive [inhibitor, single point]"}
{"smiles": "Cc1ccc2[nH]c(=O)c(C(c3nnnn3C(C)(C)C)N3CCN(C(=O)c4ccco4)CC3)cc2c1", "note": "(centres undefined)", "Potency": "active: 9.28 µM"}
{"smiles": "COCCNc1nc(-c2ccc(OC)cc2)c(-c2ccc(OC)cc2)s1", "Potency": "inactive"}
{"smiles": "O=C(NCc1cccnc1)c1cccc(Cl)c1", "Potency": "inactive"}
{"smiles": "COc1ccc(S(=O)(=O)N2CCOC23CCN(S(=O)(=O)c2ccc(Cl)cc2)CC3)cc1", "Potency": "active: 11.7 µM"}
{"smiles": "Cc1cc(C)n(-c2ccc3cccc(NS(C)(=O)=O)c3n2)n1", "Potency": "inconclusive [inhibitor, partial curve, poor fit]"}
{"smiles": "Cc1cccc(-c2oc3ccccc3c2-c2ccc3c(c2)OCO3)c1", "Potency": "inconclusive [inhibitor, single point]"}
{"smiles": "COc1cc(C2CC(c3c(C)cc(C)[nH]c3=O)=NN2c2ccccc2F)cc(OC)c1OC", "note": "(centres undefined)", "Potency": "inconclusive [inhibitor, partial curve, poor fit]"}
{"smiles": "O=C(Nc1cccc(S(=O)(=O)N2CCOCC2)c1)c1cn(-c2ccccc2)nc1-c1ccccc1", "Potency": "inactive"}
{"smiles": "COc1ccc(CC(=O)Nc2nc(-c3cccnc3)cs2)cc1", "Potency": "inactive"}
{"smiles": "CCOC(=O)N1CCc2c(sc(NC(=O)CCS(=O)(=O)c3ccccc3)c2C(N)=O)C1", "Potency": "inconclusive [inhibitor, single point]"}
{"smiles": "CN(CCC(=O)Nc1ccc2c(c1)OCO2)Cc1ccccc1", "Potency": "inconclusive [inhibitor, partial curve, poor fit]"}
{"smiles": "Cc1ccc(S(=O)(=O)NCCC(=O)OCC(=O)N2CCCC2=O)cc1C", "Potency": "inactive"}
{"smiles": "CCOc1ccc(-n2c(SCC(=O)Nc3cc(C)on3)nc3c([nH]c4ccccc43)c2=O)cc1", "Potency": "inconclusive [inhibitor, single point]"}
{"smiles": "CCc1cc(C(=O)NNC(=O)c2csc(N3CCOCC3)n2)sc1C", "Potency": "inconclusive [inhibitor, single point]"}
{"smiles": "Cc1cc(C)n(C(C)Sc2ccccc2)n1", "note": "(centres undefined)", "Potency": "inconclusive [inhibitor, partial curve, poor fit]"}
{"smiles": "COc1ccc(C(=O)OC(C)C(=O)NCC2CCCCC2)cc1S(=O)(=O)N1CCOCC1", "note": "(centres undefined)", "Potency": "inconclusive [inhibitor, partial curve]"}
{"smiles": "CCN1C(=O)C(=O)N(CC(=O)N2CCN(c3ccccc3)CC2)C1=O", "Potency": "inactive"}
{"smiles": "CCOc1ccccc1NC(=O)CSc1nc(=O)n(CCN2CCOCC2)c2c1CCCC2", "Potency": "inconclusive [inhibitor, partial curve]"}
{"smiles": "CN1c2ccc([N+](=O)[O-])cc2CC2(C(=O)NC(=O)NC2=O)C1c1ccccc1", "note": "(centres undefined)", "Potency": "inconclusive [inhibitor, partial curve, poor fit]"}
{"smiles": "COc1ccc(-n2cnc3scc(-c4ccccc4)c3c2=O)cc1", "activity change, negative = inhibition": "inactive: 30.7% [at 5.75 µM]"}
{"smiles": "CNC(=S)N1N=C(c2ccc(Br)cc2)CC1c1ccc(N(C)C)cc1", "note": "(centres undefined)", "Potency": "inconclusive [inhibitor, single point]"}
{"smiles": "CCc1ccc(OCC(=O)NNC(=O)C2CCN(c3ncnc4sc(C)c(C)c34)CC2)cc1", "Potency": "inconclusive [inhibitor, single point]"}
{"smiles": "O=C(COC(=O)/C=C/c1cccs1)Nc1nc(-c2ccccc2)cs1", "Potency": "inactive"}
{"smiles": "COc1ccc(/C=C/C(=O)NCC(c2ccc(F)cc2)N2CCOCC2)cc1OC", "note": "(centres undefined)", "Potency": "active: 8.28 µM"}
{"smiles": "CC1=CC(C)(C)NC(=S)N1C(C)c1ccccc1", "note": "(centres undefined)", "Potency": "inconclusive [inhibitor, single point]"}
{"smiles": "Cc1c(NC(=O)C(C)N(c2ccccc2)S(C)(=O)=O)c(=O)n(-c2ccccc2)n1C", "note": "(centres undefined)", "Potency": "inactive"}
{"smiles": "COc1ccc(NC(=O)C(=O)Nc2cccc3cccnc23)c(OC)c1", "Potency": "inactive"}
{"smiles": "CC(=O)Cc1cc(O)c2ccccc2c1OC(=O)c1ccccc1", "Potency": "active: 13.1 µM"}
{"smiles": "Cc1ccnc(NC(=O)c2ccc([N+](=O)[O-])s2)c1", "Potency": "inconclusive [inhibitor, single point]"}
{"smiles": "CN(C)N1C(N)=C(C#N)C(c2ccc(Br)cc2)C2=C1CC(C)(C)CC2=O", "note": "(centres undefined)", "activity change, negative = inhibition": "inactive: 1.98% [at 0.00184 µM]"}
{"smiles": "CC1(C)CC(=O)/C(=C(/O)Cc2ccccc2)C(=NCCc2ccccc2)C1", "Potency": "inconclusive [inhibitor, single point]"}
{"smiles": "COC(=O)C1=C(c2ccc(C(C)=O)cc2)C[C@@H]2CC[C@H]1N2C(=O)NC(C)C", "Potency": "inactive"}
{"smiles": "COC(=O)C1=C(c2ccc3ccccc3c2)C[C@@H]2CC[C@H]1N2C(=O)N1CCCC1", "Potency": "active: 9.28 µM"}
{"smiles": "O=C(Nc1ccc(S(=O)(=O)Nc2nccs2)cc1)c1cccc(S(=O)(=O)N2CCOCC2)c1", "Potency": "inconclusive [inhibitor, full curve, poor fit]"}
{"smiles": "c1ccc(CNc2nc(-c3cccnc3)cs2)cc1", "Potency": "inconclusive [inhibitor, single point]"}
{"smiles": "Cn1c(SCC(=O)N(C2CCCCC2)C2CCCCC2)nnc1-c1cccs1", "Potency": "active: 11.7 µM"}
{"smiles": "Oc1ccc(N=Nc2ccc3c(c2)OCO3)c2ccccc12", "Potency": "inconclusive [inhibitor, full curve]"}
{"smiles": "NC(=O)c1nsc(C(=O)N(Cc2cccnc2)C(C(=O)NCc2ccccc2)c2ccc(O)cc2)c1N", "note": "(centres undefined)", "Potency": "inconclusive [inhibitor, partial curve, poor fit]"}
{"smiles": "CN(CCNC(=O)C1CCN(c2ncnc3c2nc2n3CCCCC2)CC1)Cc1ccccc1", "Potency": "inconclusive [inhibitor, partial curve, poor fit]"}
